This is an account of results in PubChem BioAssay AID1963576 (National Center for Advancing Translational Sciences (NCATS), 2024).

Screen size: about 46,000 compounds; about 60 (0.1%) were called active. Roughly 3% stayed inconclusive and do not appear here. The call rests on the fitted dose curve; in most records, active means well fitted inhibition curve with a large enough effect; inconclusive means small, poorly fitted or top-dose-only effect; inactive means no such curve, though single readings can be large or run the other way. The list shows a part of the results.

This test can be described thus: Primary qHTS assay for Inhibitors of ovarian cancer metastasis using an organotypic tumor microenvironment (TME) model. Further: nearly all actives have a fitted effect of over 65% in size.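 On activity change, negative = inhibition: plate controls were DMSO wells for no effect and tomatine positive control wells for full effect.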 As to conditions: SKOV3ip1-GFP adhesion/invasion on 3D omental model, fluorescence; series mostly up to 45.8 µM; activity change, negative = inhibition: at the top concentration. The procedure, abridged: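 Primary human omental fibroblast/mesothelial 3D culture pre-formed 48 h. SKOV3ip1-GFP cells added with compounds (0.36-46 umol/L), incubated 2 h RT/16 h 37 C, fixed; GFP cells quantified at 488/509 nm.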
As for `CCc1ccc(NC(=O)c2ccc(F)c(S(=O)(=O)N3CCC(C)CC3)c2)cc1`, the “activity change, negative = inhibition” value is inactive: -9.05%.
Still for that read-out and setting: with `Cc1cn(C)c(CC(=O)Nc2cccc(Cl)c2C)c1C(=O)O` the figure was inactive: -4.06%.
The same measure, in the same setting: the same measure for `CCOC(=O)c1sc2ccccc2c1S(=O)(=O)Nc1cccc(C(F)(F)F)c1`: inactive: -4.93%.
For `Cc1cccc(C(=O)NCCc2sc(-c3ccccc3)nc2C)c1`, the “activity change, negative = inhibition” value is inactive: 8.59%.
Consider `C=CCc1cccc2cc(C(=O)Nc3cccc(Cl)c3)c(=O)oc12`, for which the “activity change, negative = inhibition” value was inactive: -2.31%.
The same measure, in the same setting: with `COc1ccc(-c2nnc(SCC(=O)Oc3c(C)cccc3C)o2)cc1OC` the figure was inactive: 5.97%; with `CCCCN(C)C(=O)C(Cc1ccccc1)NS(=O)(=O)c1ccc2c(c1)c(=O)n(C)c(=O)n2C` (centres undefined), inactive: -3.16%; with `Cc1oc(-c2cccc(Cl)c2)nc1CN1CCCC(C(=O)NCc2ccc(F)cc2)C1` (centres undefined), inactive: 17.2%.
In the case of `CC(C)OCCCNC(=O)c1ccc2c(=O)n(CCc3ccccc3)c(=O)[nH]c2c1`, the “activity change, negative = inhibition” value was inactive: 1.23%.
As for `Cc1coc2c1c(C)cc1oc(=O)cc(C)c12`, the “activity change, negative = inhibition” value is inactive: 21.6%.
On the same count and under the same terms, the same measure for `CCOC(=O)C1=C(CS(=O)(=O)c2ccc(Br)cc2)NC(=O)NC1c1ccccc1` (centres undefined): inactive: 18.2%; for `Cc1ccccc1CNC(=O)c1ccc(-c2nc(CS(=O)(=O)c3ccccc3)c(C)o2)cc1`: inactive: -8.85%; for `Cc1ccc(-c2c(C(=O)NCc3ccccc3)oc(=O)c3ccccc23)cc1`: inactive: 2.99%.
As to `COC(=O)c1cc(NC(=O)Cn2nc(C)n3cccc3c2=O)cc(C(=O)OC)c1`, the compound was called inactive.
Turning to `COc1cc(NC(=O)c2cc(Cl)c(OC)c(Cl)c2)ccc1NC(=O)c1cc2ccccc2o1`, the “activity change, negative = inhibition” value was inactive: 1.25%.
Still for that read-out and setting: with `CCc1cccc(C)c1NC(=O)c1cc(C)nc2c1c(C)nn2-c1cccc(Cl)c1C` the figure was inactive: -7.7%.
Same read-out and setting: the same measure for `COc1ccc(C)cc1NC(=O)CN(c1cc(C(F)(F)F)ccc1Cl)S(C)(=O)=O`: inactive: 7.42%.
On the same count and under the same terms, the same measure for `CC(=O)c1c(C)oc2ccc(N(C(=O)Oc3ccccc3)S(=O)(=O)c3ccc(C(C)(C)C)cc3)cc12`: inactive: 15.4%; for `CN1c2ccccc2-c2nc(SCC(=O)Nc3ccccc3C(F)(F)F)ncc2S1(=O)=O`: inactive: -0.658%.
In the case of `COc1ccccc1CNC(=O)CCn1c(=O)c2ccccc2n(CC(=O)Nc2ccc(C)cc2C)c1=O`, the result was inactive.
With `Cc1ccc(CN2CCCn3nc(C(=O)NCCc4ccc(Cl)cc4)cc3C2=O)cc1`, the “activity change, negative = inhibition” value is inactive: -7.77%.
Same read-out and setting: the same measure for `COc1ccc2c(c1)-c1nc(NC(=O)c3cc(Cl)ccc3OC)sc1CC2`: inactive: -7.08%.
In the case of `Cc1cc(OC(=O)c2cc(-c3ccc4c(c3)OCCO4)on2)ccc1Cl`, the call was inactive.
On the same count and under the same terms, the same measure for `COc1ccc(C(CC(=O)Nc2ccc(C)c(C)c2)N2Cc3ccccc3C2=O)cc1OC` (centres undefined): “inactive”.
`CCN(Cc1ccccc1)C(=O)Cn1c(=O)n(Cc2ccccc2)c(=O)c2c1c1cc(OC)ccc1n2C`: the “activity change, negative = inhibition” value is inactive: 7.84%.
Turning to `Cc1ccc(CSc2nc3ccc(NC(=O)C(C)C)cc3s2)cc1`, the “activity change, negative = inhibition” value is inactive: -8.71%.
The same measure, in the same setting: the same measure for `CCc1nn2c(=O)c(S(=O)(=O)Nc3ccc(OC)c(Cl)c3)c(C)nc2s1`: inactive: -23.2%.
As for `CC(=O)c1cccc(S(=O)(=O)NCCc2csc3nc(-c4ccc(F)cc4)nn23)c1`, the outcome was inactive.
As for `Cc1nc(CC(=O)Nc2cccc(C)c2C)cs1`, the compound was classed as inactive.
Regarding `Cc1ccc2c(=O)cc(CSc3ccccc3)[nH]c2c1C`, the “activity change, negative = inhibition” value is inactive: -4.99%.
Same read-out and setting: the same measure for `Cc1ccc(CSCC(=O)N2CCN(c3ccc(F)cc3)CC2)cc1`: inactive: -0.811%.
On the same count and under the same terms, with `CC(C)c1ccc(S(=O)(=O)c2nnn3c2nc(NC2CCCC2)c2sccc23)cc1` the figure was inactive: -0.725%.
Turning to `COc1ccc(C(=O)NCc2ccc3c(c2)CCN3C(=O)c2ccncc2)cc1`, the compound was classed as inactive.
In the case of `COc1ccc(OC)c(NC(=O)c2c(NCc3ccc(C)o3)sc3c2CCC(C)C3)c1` (centres undefined), the “activity change, negative = inhibition” value is inactive: -24.1%.
The same measure, in the same setting: the same measure for `Cc1cccc(N(CC(=O)Nc2ccc(Br)cc2)S(C)(=O)=O)c1C`: inactive: 0.168%; for `O=C(C1CCC(Cn2c(=O)c3sccc3n(Cc3cccc(F)c3)c2=O)CC1)N1CCOCC1` (centres undefined): inactive: 1.62%.
Regarding `Cc1ccc(Cl)cc1N(C)C(=O)c1cc2c(Cl)nc3ccccc3c2s1`, the compound was classed as inactive.
Turning to `Cc1ccc(Cn2c(CO)cnc2SCC(=O)NCc2ccccc2Cl)cc1`, the “activity change, negative = inhibition” value is inactive: -6.57%.
Still for that read-out and setting: the same measure for `COc1ccc(N2CCN(C3(c4ccccc4)C(=O)c4ccccc4C3=O)CC2)cc1`: inactive: -5.09%.
Still for that read-out and setting: the same measure for `CCCCCCNC(=O)c1c[nH]c2ccc(S(=O)(=O)N(C)c3ccc(C(C)C)cc3)cc2c1=O`: inactive: -1.81%.
As for `N#C/C(=C/c1ccccc1Cl)c1nc2ccccc2c(=O)[nH]1`, the outcome was inactive.
Regarding `Cc1cccc(C(=O)Nc2cc3nn(-c4ccc(C(C)C)cc4)nc3cc2C)c1`, the “activity change, negative = inhibition” value was inactive: -8.01%.
Turning to `Clc1cccc(-c2nc3ccccn3c2Nc2ccc3c(c2)OCCO3)c1`, the “activity change, negative = inhibition” value was inactive: -6.1%.
Still for that read-out and setting: with `COC(=O)c1ccc(Nc2nc(-c3ccccc3Cl)nc3ccccc23)cc1` the figure was inactive: 3.76%.
Turning to `COc1ccc(N2C(=O)CSC23C(=O)N(CC(=O)Nc2ccccc2F)c2ccccc23)cc1` (centres undefined), the “activity change, negative = inhibition” value is inactive: -1.55%.
As to `CC(=O)Nc1ccc(Nc2nc3c(S(=O)(=O)c4cc(C)ccc4C)nnn3c3ccsc23)cc1`, the outcome was inactive.
Consider `COc1cccc(OC(=O)CSc2nnc(-c3cccs3)o2)c1`, for which the “activity change, negative = inhibition” value is inactive: 5.09%.
In the case of `Cc1cc2nn(-c3ccc(F)cc3)nc2cc1NC(=O)c1cccc([N+](=O)[O-])c1C`, the call was inactive.
Regarding `Cc1ccc(CSCCNC(=O)C2CCN(S(=O)(=O)Cc3ccccc3)CC2)cc1`, the call was inactive.
